From the supplement of paper PMC12645437, “Orthogonal IMiD-Degron Pairs Induce Selective Protein Degradation in Cells” (ACS Chemical Biology, 2025)
This is one part of the list.

Target: no compound (DMSO)
Assay: log2 fold change of degron read counts, EGFP-low vs EGFP+ sorted cells; higher = lower degron-EGFP level without compound (poor expression or instability)
Details: compound: DMSO control; 18 h
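Further: jurkat cells carrying a lentiviral library of mutant zinc finger degrons fused to EGFP plus mCherry, mCherry+ cells FACS sorted, degron abundance counted by next-generation sequencing.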

How did the “log2 fold change of degron read counts” value turn out when FDCNQCGADFTQKGNLLRHIKL was run?
The value was 0.293.

With FVCPQCGAIFTQKGNLLRHIKL as the sequence, how does the “log2 fold change of degron read counts” value read?
The value was 0.11.

How did the “log2 fold change of degron read counts” value turn out when FDCPICGHQFTQKGNLLRHIKL was run?
The value was -1.44.

Which “log2 fold change of degron read counts” value does the source give for FSCNQCGAHFTQKGNLLRHIKL here?
Its value is -0.164.

Which “log2 fold change of degron read counts” value does the source give for LHCNQCGFNCTQKGNLLRHIKL here?
Its value is 0.733.

Which “log2 fold change of degron read counts” value does the source give for FYCEICGARFTQKGNLLRHIKL here?
Its value is -1.16.

How did the “log2 fold change of degron read counts” value turn out when FMCEICGACFTQKGNLLRHIKL was run?
Its value is -1.59.

How did the “log2 fold change of degron read counts” value turn out when FKCNVCGARFTQKGNLLRHIKL was run?
The value was -1.27.

Which “log2 fold change of degron read counts” value does the source give for FMCNICGAVFTQKGNLLRHIKL here?
Its value is 0.199.

FECPQCGAKFTQKGNLLRHIKL was tested. Which “log2 fold change of degron read counts” value did it give?
The value was -1.83.

FACPQCGANFTQKGNLLRHIKL was tested. Which “log2 fold change of degron read counts” value did it give?
Its value is -4.6.

FLCPVCGARFTQKGNLLRHIKL was tested. Which “log2 fold change of degron read counts” value did it give?
The value was 0.286.

With LCCNQCGFVCTQKGNLLRHIKL as the sequence, how does the “log2 fold change of degron read counts” value read?
The value was 0.494.

With FCCPVCGATFTQKGNLLRHIKL as the sequence, how does the “log2 fold change of degron read counts” value read?
Its value is -0.256.

For FCCDQCGARFTQKGNLLRHIKL, which “log2 fold change of degron read counts” value is on record?
Its value is -0.781.

How did the “log2 fold change of degron read counts” value turn out when FCCEICGHCFTQKGNLLRHIKL was run?
Its value is -1.4.

With FHCDICGAMFTQKGNLLRHIKL as the sequence, how does the “log2 fold change of degron read counts” value read?
The value was -1.76.

FGCDICGASFTQKGNLLRHIKL was tested. Which “log2 fold change of degron read counts” value did it give?
Its value is -1.57.

FDCNQCGRRFTQKGNLLRHIKL was tested. Which “log2 fold change of degron read counts” value did it give?
The value was -0.0328.

For FICSVCGHEFTQKGNLLRHIKL, which “log2 fold change of degron read counts” value is on record?
Its value is -1.61.

With FLCPQCGANFTQKGNLLRHIKL as the sequence, how does the “log2 fold change of degron read counts” value read?
Its value is -1.69.

With FDCNQCGRAFTQKGNLLRHIKL as the sequence, how does the “log2 fold change of degron read counts” value read?
Its value is -0.497.

How did the “log2 fold change of degron read counts” value turn out when LRCEICGFWCTQKGNLLRHIKL was run?
Its value is 1.25.

For LCCEICGFCCTQKGNLLRHIKL, which “log2 fold change of degron read counts” value is on record?
The value was -0.0228.

FTCPICGHRFTQKGNLLRHIKL was tested. Which “log2 fold change of degron read counts” value did it give?
Its value is -0.309.

With FNCPICGRQFTQKGNLLRHIKL as the sequence, how does the “log2 fold change of degron read counts” value read?
The value was -0.35.

With FYCEICGHRFTQKGNLLRHIKL as the sequence, how does the “log2 fold change of degron read counts” value read?
The value was -1.36.

For FKCNQCGHWFTQKGNLLRHIKL, which “log2 fold change of degron read counts” value is on record?
Its value is 0.589.

How did the “log2 fold change of degron read counts” value turn out when FHCPICGHMFTQKGNLLRHIKL was run?
The value was 0.0547.

FSCDVCGAHFTQKGNLLRHIKL was tested. Which “log2 fold change of degron read counts” value did it give?
Its value is -1.68.

For FFCNICGARFTQKGNLLRHIKL, which “log2 fold change of degron read counts” value is on record?
The value was 0.0162.

FWCEICGRMFTQKGNLLRHIKL was tested. Which “log2 fold change of degron read counts” value did it give?
Its value is 0.874.

FHCPICGASFTQKGNLLRHIKL was tested. Which “log2 fold change of degron read counts” value did it give?
Its value is -0.646.

Which “log2 fold change of degron read counts” value does the source give for FHCEICGRVFTQKGNLLRHIKL here?
The value was -0.818.

For FVCPICGHHFTQKGNLLRHIKL, which “log2 fold change of degron read counts” value is on record?
The value was 0.0468.

With FVCNQCGRKFTQKGNLLRHIKL as the sequence, how does the “log2 fold change of degron read counts” value read?
The value was -0.823.

For FCCEQCGAFFTQKGNLLRHIKL, which “log2 fold change of degron read counts” value is on record?
Its value is -1.34.

FVCNICGADFTQKGNLLRHIKL was tested. Which “log2 fold change of degron read counts” value did it give?
Its value is -1.91.

FGCPQCGARFTQKGNLLRHIKL was tested. Which “log2 fold change of degron read counts” value did it give?
Its value is -0.536.

With FHCEICGHWFTQKGNLLRHIKL as the sequence, how does the “log2 fold change of degron read counts” value read?
The value was -0.272.

With FHCPVCGALFTQKGNLLRHIKL as the sequence, how does the “log2 fold change of degron read counts” value read?
The value was 0.0112.

For FRCPICGHPFTQKGNLLRHIKL, which “log2 fold change of degron read counts” value is on record?
Its value is 0.599.

Which “log2 fold change of degron read counts” value does the source give for FKCPICGHRFTQKGNLLRHIKL here?
Its value is -1.25.

For FTCNICGAEFTQKGNLLRHIKL, which “log2 fold change of degron read counts” value is on record?
The value was -1.51.

Which “log2 fold change of degron read counts” value does the source give for FHCEQCGAVFTQKGNLLRHIKL here?
Its value is -1.15.

FCCPICGAPFTQKGNLLRHIKL was tested. Which “log2 fold change of degron read counts” value did it give?
The value was 1.12.

With LECEICGFWCTQKGNLLRHIKL as the sequence, how does the “log2 fold change of degron read counts” value read?
Its value is 0.912.

Which “log2 fold change of degron read counts” value does the source give for FMCEQCGACFTQKGNLLRHIKL here?
Its value is -1.3.

With FHCDICGAKFTQKGNLLRHIKL as the sequence, how does the “log2 fold change of degron read counts” value read?
The value was -2.39.

With FQCPQCGAPFTQKGNLLRHIKL as the sequence, how does the “log2 fold change of degron read counts” value read?
The value was -1.09.
